This note sets out measurements from the supplement of paper PMC10369915.

The list shows a part of the results. Cut-off read from the data, not from the text of the source: active = 3.2 or more and inactive = the rest. The signal is at background level for most entries.
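Note: displayed peptides selected on beads carrying the immobilized SH2 domain, with library peptides lacking any tyrosine serving as negative controls.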

The first test concerns the target SHP2 C-SH2 domain E139D. The test is described as follows: enrichment score (SH2-bound / input frequency) (ratio); bacterial display of known human phosphotyrosine sites (pTyr-Var adds point mutants) read by sequencing; higher = stronger binding; tyrosines were phosphorylated by kinases first. To be noted: peptide library: pTyr-Var.
As for FVSIVYNDFGE [TSC2_Y1650_S1653F], the enrichment score was active: 4.79.
On to ARMTNCGLPRF [TSPAN12_Y138_Y138C_YF], for which the enrichment score is inactive: 1.03.
On to TETGRYEILTE [TTN_Y13435_I13430T], for which the enrichment score is inactive: 0.647.
Consider YGLPRYRWLTH [TSPAN12_Y143], for which the enrichment score is inactive: 0.318.
The same measure, in the same setting: for TEVIWYKGDEE [TTN_Y13423_A13418T] the value was inactive: 0.96.
Turning to ESSKAYERDLS [TTC37_Y1074_A1077D], the enrichment score was inactive: 0.371.
Still for that read-out and setting: to CGLPRYRWLTH [TSPAN12_Y143_Y138C] belongs inactive: 0.42.
Still for that read-out and setting: to DTQNSYWCATS [TSC1_Y304_G305W] belongs inactive: 0.612; to FVSIVCNDSGE [TSC2_Y1650_Y1650C], inactive: 1.62.
On the same count and under the same terms, for SEDANYMRVSC [TTC3_Y1288_K1289M] the value was inactive: 0.64.
For the molecule QPDLLYDHIQP [TRRAP_Y862_F860L], the enrichment score was inactive: 1.06.
Take EHLNRYISDTF [TTLL10_Y446]: the enrichment score was inactive: 0.982.
With GRRGQYVMLSE [TTC7A_Y396], the enrichment score is inactive: 0.193.
On the same count and under the same terms, for EPTPSYEVGQR [TSC2_Y1788_G1787S] the value was inactive: 0.564; for GRRGQYVMPSE [TTC7A_Y396_L399P], inactive: 0.434.
Consider FVSIVYSDSGE [TSC2_Y1650_N1651S], for which the enrichment score is inactive: 1.92.
On the same count and under the same terms, to DSKIRYLSADS [TTF1_Y476_E473K] belongs inactive: 0.553; to ANNEYYFRVCA [TTN_Y18998], inactive: 0.709.

In the next test the target is SHP2 C-SH2 domain wild-type. The description is as above. To be noted: peptide library: pTyr-Var.
Turning to FVSIVYNDFGE [TSC2_Y1650_S1653F], the enrichment score was active: 3.55.
Turning to ARMTNCGLPRF [TSPAN12_Y138_Y138C_YF], the enrichment score is inactive: 0.936.
Same read-out and setting: to TETGRYEILTE [TTN_Y13435_I13430T] belongs inactive: 0.78.
YGLPRYRWLTH [TSPAN12_Y143]: the enrichment score is inactive: 0.194.
As to TEVIWYKGDEE [TTN_Y13423_A13418T], the enrichment score was inactive: 0.462.
The same measure, in the same setting: to ESSKAYERDLS [TTC37_Y1074_A1077D] belongs inactive: 0.542; to CGLPRYRWLTH [TSPAN12_Y143_Y138C], inactive: 0.426.
The same measure, in the same setting: for DTQNSYWCATS [TSC1_Y304_G305W] the value was inactive: 0.666; for FVSIVCNDSGE [TSC2_Y1650_Y1650C], inactive: 2.08.
Take SEDANYMRVSC [TTC3_Y1288_K1289M]: the enrichment score is inactive: 0.686.
As for QPDLLYDHIQP [TRRAP_Y862_F860L], the enrichment score was inactive: 0.679.
As for EHLNRYISDTF [TTLL10_Y446], the enrichment score was inactive: 0.797.
Regarding GRRGQYVMLSE [TTC7A_Y396], the enrichment score is inactive: 0.232.
Same read-out and setting: to EPTPSYEVGQR [TSC2_Y1788_G1787S] belongs inactive: 0.381; to GRRGQYVMPSE [TTC7A_Y396_L399P], inactive: 0.412; to FVSIVYSDSGE [TSC2_Y1650_N1651S], inactive: 1.62.
Same read-out and setting: to DSKIRYLSADS [TTF1_Y476_E473K] belongs inactive: 0.953; to ANNEYYFRVCA [TTN_Y18998], inactive: 0.731.

A further test addresses SHP2 N-SH2 domain L43F. Described as above. To be noted: peptide library: pTyr-Var.
On to FVSIVYNDFGE [TSC2_Y1650_S1653F], for which the enrichment score is active: 3.77.
Consider ARMTNCGLPRF [TSPAN12_Y138_Y138C_YF], for which the enrichment score was inactive: 0.988.
For TETGRYEILTE [TTN_Y13435_I13430T], the enrichment score is inactive: 0.772.
As for YGLPRYRWLTH [TSPAN12_Y143], the enrichment score was inactive: 0.322.
Still for that read-out and setting: for TEVIWYKGDEE [TTN_Y13423_A13418T] the value was inactive: 0.759; for ESSKAYERDLS [TTC37_Y1074_A1077D], inactive: 0.451.
The same measure, in the same setting: for CGLPRYRWLTH [TSPAN12_Y143_Y138C] the value was inactive: 0.407.
Still for that read-out and setting: for DTQNSYWCATS [TSC1_Y304_G305W] the value was inactive: 0.564.
For the molecule FVSIVCNDSGE [TSC2_Y1650_Y1650C], the enrichment score was inactive: 1.39.
Consider SEDANYMRVSC [TTC3_Y1288_K1289M], for which the enrichment score is inactive: 0.55.
The same measure, in the same setting: to QPDLLYDHIQP [TRRAP_Y862_F860L] belongs inactive: 0.653; to EHLNRYISDTF [TTLL10_Y446], inactive: 1.01.
On the same count and under the same terms, for GRRGQYVMLSE [TTC7A_Y396] the value was inactive: 0.297; for EPTPSYEVGQR [TSC2_Y1788_G1787S], inactive: 0.422.
Turning to GRRGQYVMPSE [TTC7A_Y396_L399P], the enrichment score was inactive: 0.363.
With FVSIVYSDSGE [TSC2_Y1650_N1651S], the enrichment score is inactive: 1.87.
With DSKIRYLSADS [TTF1_Y476_E473K], the enrichment score was inactive: 0.58.
Same read-out and setting: for ANNEYYFRVCA [TTN_Y18998] the value was inactive: 0.614.

A further test concerns the target SHP2 N-SH2 domain T42A. The test is described as above. To be noted: peptide library: pTyr-Var.
On to FVSIVYNDFGE [TSC2_Y1650_S1653F], for which the enrichment score is active: 3.49.
In the case of ARMTNCGLPRF [TSPAN12_Y138_Y138C_YF], the enrichment score is inactive: 0.835.
For TETGRYEILTE [TTN_Y13435_I13430T], the enrichment score was inactive: 0.752.
In the case of YGLPRYRWLTH [TSPAN12_Y143], the enrichment score was inactive: 0.217.
As for TEVIWYKGDEE [TTN_Y13423_A13418T], the enrichment score is inactive: 0.906.
For ESSKAYERDLS [TTC37_Y1074_A1077D], the enrichment score was inactive: 0.391.
Still for that read-out and setting: to CGLPRYRWLTH [TSPAN12_Y143_Y138C] belongs inactive: 0.313; to DTQNSYWCATS [TSC1_Y304_G305W], inactive: 0.587.
FVSIVCNDSGE [TSC2_Y1650_Y1650C]: the enrichment score was inactive: 1.54.
For SEDANYMRVSC [TTC3_Y1288_K1289M], the enrichment score is inactive: 0.583.
Turning to QPDLLYDHIQP [TRRAP_Y862_F860L], the enrichment score was inactive: 0.72.
For EHLNRYISDTF [TTLL10_Y446], the enrichment score was inactive: 0.638.
For GRRGQYVMLSE [TTC7A_Y396], the enrichment score is inactive: 0.225.
Still for that read-out and setting: for EPTPSYEVGQR [TSC2_Y1788_G1787S] the value was inactive: 0.503.
In the case of GRRGQYVMPSE [TTC7A_Y396_L399P], the enrichment score was inactive: 0.265.
FVSIVYSDSGE [TSC2_Y1650_N1651S]: the enrichment score was inactive: 1.56.
As for DSKIRYLSADS [TTF1_Y476_E473K], the enrichment score was inactive: 0.462.
With ANNEYYFRVCA [TTN_Y18998], the enrichment score was inactive: 0.76.

Another test addresses SHP2 N-SH2 domain T52S. The description is as above. To be noted: peptide library: pTyr-Var.
Consider FVSIVYNDFGE [TSC2_Y1650_S1653F], for which the enrichment score was active: 4.56.
Still for that read-out and setting: for ARMTNCGLPRF [TSPAN12_Y138_Y138C_YF] the value was inactive: 0.944; for TETGRYEILTE [TTN_Y13435_I13430T], inactive: 0.872.
Same read-out and setting: to YGLPRYRWLTH [TSPAN12_Y143] belongs inactive: 0.25; to TEVIWYKGDEE [TTN_Y13423_A13418T], inactive: 0.788; to ESSKAYERDLS [TTC37_Y1074_A1077D], inactive: 0.556.
The same measure, in the same setting: for CGLPRYRWLTH [TSPAN12_Y143_Y138C] the value was inactive: 0.421.
In the case of DTQNSYWCATS [TSC1_Y304_G305W], the enrichment score was inactive: 0.551.
The same measure, in the same setting: to FVSIVCNDSGE [TSC2_Y1650_Y1650C] belongs inactive: 1.45; to SEDANYMRVSC [TTC3_Y1288_K1289M], inactive: 0.682; to QPDLLYDHIQP [TRRAP_Y862_F860L], inactive: 0.695.
As for EHLNRYISDTF [TTLL10_Y446], the enrichment score was inactive: 0.742.
The same measure, in the same setting: to GRRGQYVMLSE [TTC7A_Y396] belongs inactive: 0.261; to EPTPSYEVGQR [TSC2_Y1788_G1787S], inactive: 0.529; to GRRGQYVMPSE [TTC7A_Y396_L399P], inactive: 0.243.
Still for that read-out and setting: to FVSIVYSDSGE [TSC2_Y1650_N1651S] belongs inactive: 1.92; to DSKIRYLSADS [TTF1_Y476_E473K], inactive: 0.415.
In the case of ANNEYYFRVCA [TTN_Y18998], the enrichment score was inactive: 0.715.

The target in a further test is SHP2 N-SH2 domain wild-type. Described as above. To be noted: peptide library: pTyr-Var.
Regarding FVSIVYNDFGE [TSC2_Y1650_S1653F], the enrichment score is active: 3.83.
Same read-out and setting: for ARMTNCGLPRF [TSPAN12_Y138_Y138C_YF] the value was inactive: 0.999; for TETGRYEILTE [TTN_Y13435_I13430T], inactive: 0.915.
YGLPRYRWLTH [TSPAN12_Y143]: the enrichment score was inactive: 0.288.
As for TEVIWYKGDEE [TTN_Y13423_A13418T], the enrichment score was inactive: 0.53.
On the same count and under the same terms, for ESSKAYERDLS [TTC37_Y1074_A1077D] the value was inactive: 0.611.
The same measure, in the same setting: for CGLPRYRWLTH [TSPAN12_Y143_Y138C] the value was inactive: 0.364; for DTQNSYWCATS [TSC1_Y304_G305W], inactive: 0.757.
Consider FVSIVCNDSGE [TSC2_Y1650_Y1650C], for which the enrichment score is inactive: 2.23.
In the case of SEDANYMRVSC [TTC3_Y1288_K1289M], the enrichment score was inactive: 0.81.
For the molecule QPDLLYDHIQP [TRRAP_Y862_F860L], the enrichment score was inactive: 1.16.
For the molecule EHLNRYISDTF [TTLL10_Y446], the enrichment score was inactive: 0.862.
On the same count and under the same terms, for GRRGQYVMLSE [TTC7A_Y396] the value was inactive: 0.319; for EPTPSYEVGQR [TSC2_Y1788_G1787S], inactive: 0.46.
On to GRRGQYVMPSE [TTC7A_Y396_L399P], for which the enrichment score is inactive: 0.353.
The same measure, in the same setting: for FVSIVYSDSGE [TSC2_Y1650_N1651S] the value was inactive: 1.81; for DSKIRYLSADS [TTF1_Y476_E473K], inactive: 0.775.
In the case of ANNEYYFRVCA [TTN_Y18998], the enrichment score is inactive: 1.03.
